Data: the RNAGym collection of RNA variant scans (doi:10.7554/elife.90254)
The source gives no read counts; variants with many changes may rest on few reads.

B1: OR4K15 (parent)
chain: GUUAACGGUCAUAGGCCAUGGAAACUAGGAGCACCAUUUCGCUGCCAGUGAAGAAAUGAACAAAGAAAAUCUGGGCCAGGCAGGCAUCAAAAGAAAUAGUCUUGCGCUCAACCAGAAAGUCUGUAAUCAUUUUAAGGGUA

Variants of: B1
Experiment: self-cleavage, relative activity (ratio to wild type); higher = more cleavage; in vitro, sequencing; the parent is a self-cleaving ribozyme

| Variant | self-cleavage |
| --- | --- |
| GUUAACGGUCAUAGGCCAUGGAAGCUAGGAGCACCAUUUCGCUGACAGUGAAGAAGUGAACAAAGAAAAUCUGGGCCAGGCAGGCAUCAAAAGAAAUAGUCUUGCGCUCAACCAGAAAGUCUGUGAUCAUCUUAAGGGUA [A24G C45A A56G A125G U131C] | 0.24 |
| GUUAACGGUCAUAGGCCAUGGAAGCUAGGAGCACCAUUUCGCUGCUAGUGAAGAAAUGAACAAAGAAAAUCUGGGCCAGGCAGGCAUCAAAAGAAAUAGUCUUGCGCUCAACCAGAAAGUCUGUAAUCGUUUUAAGGGUA [A24G C46U A129G] | 1.89 |
| GUUAACGGUCAUAGGCCAUGGAAGCUAGGAGCACCAUUUCGCUGCCAGUGAAGAAAUGAACAAAGAAAAUCUGGGCCAGGCAGGCAUCAAAAGAACUAGUCUUGCGCUCAACCAGAAAGUCUGUAAUCAUUUUAGGGGUA [A24G A96C A135G] | 0.95 |
| GUUAACGGUCAUAGGCCAUGGAAGCUAGGAGCACCAUUUCGCUGCCAGUGAAGAAAUGAACAAAGAAAAUCUGGGCCAAGCAGGCAUCAAAAGAAAUUGUCUUGCGCUCAACCAGAAAGUCUGUAAUCAUUUUAAGGGUA [A24G G79A A98U] | 0.14 |
| GUUAACGGUCAUAGGCCAUGGAAGCUAGGAGCACCAUUUCGCUGCCAGUGAAGAAAUGAACAAAGAAAAUCUGGGCCAGGCAGGCAUCAAGAGAAAUAGUCUUGCGCUCAACCAGAAAGUCAGUAAUCAUUUUAAGGGUA [A24G A91G U122A] | 1.06 |
| GUUAACGGUCAUAGGCCAUGGAAGCUAGGAGCACCAUUUCGCUGCCAGUGAAGAAAUGAACAAAGAGAAUCUGGGCCAGGCAGGCAUCAAAAGAAAUAGUCUUGCGCCCAACCAGAAAGUCUGUAAUCAUUUUAAGGGUA [A24G A67G U108C] | 0.04 |
| GUUAACGGUCAUAGGCCAUGGAAGCUAGGAGCACCAUUUCGCUGCCAGUGAAGAAAUGAACAAAGAAAAUCUGGGCCAGGCAGGCAUCAAGAGAAAUAGUCUUGCGCUCGACCAGAAAGUCUGUAAUCAUUUUAAGGGUA [A24G A91G A110G] | 0.15 |
| GUUAACGGUCAUAGGCCAUGGAAGCUAGGAGCAUCAUUUCGCUGCCAGUGAAGAAAUGAACGAAGAAAAUCUGGGCCAGGCAGGCAUCAAAAGAAACAGUCUUGCGCUCAACCAGAAAGUCUGUAAUCAUUUUAAGGGUA [A24G C34U A62G U97C] | 0.53 |
| GUUAACGGUCAUAGGCCAUGGAAGCUAGGAGCACCAUUUCGCUGCCAGUGAAGAAAUGAACAAAGAAAAUCUGGGCCUGGCAGGCAUCAAAAGAAAUAGUCUUGCGCUCAACCAGAAAGUCUGUAAUCAUUCUAAGGGUA [A24G A78U U132C] | 0.2 |
| GUUAACGGUCAUAGGCCAUGGAAGCUAGGAGCACCAUUUCGCUGCCAGUGAAGAAAUGAACAAAGAAAAUCUGGGCCAGGCAGGCAUCGAAAGAAAUAGUCUUGCGCUCAACCAGAAAGCCUGUAAUCAUUUUAAGGGUA [A24G A89G U120C] | 0.01 |
| GUUAACGGUCAUAGGCCAUGGAAGCUAGGAGCACCAUUUCGCUGCCAGUGAAGAAAUGAACAAAGAAAAUCUGGGCCAGGCAGGCAUCAAAAGAAAUAGUCUUGCGCUCAGCCGGAAGGUCUGCAAUCAUUUUAAGGGUA [A24G A111G A114G A118G U124C] | 0.01 |
| GUUAACGGUCAUAGGCCAUGGAAGCUAGGAGCACCAUUUCGCUGCCAGUGAAGAAAUGAACAAAGAGAAUCUGGGCCAGGCAGGCAUCAAAAGAAGUAGUCUUGCGCUCAACCAGGAAGUCUGUAAUCAUUUUAAGGGUA [A24G A67G A96G A116G] | 1.04 |
| GUUAACGGUCAUAGGCCAUGGAAGCUAGGAGCACCAUUUCGCUGCCAGUGAAGAAAUGAACAAAGAAAAUCUGGGCCAGGCAAGCAUCAAAAGAAAUAGUCUUGCGCUCAACCAGAAAGUCUGUAAUCAUUUUAAGGGUU [A24G G83A A140U] | 0.63 |
| GUUAACGGUCAUAGGCCAUGGAAGCUAGGAGCACCAUUUCGCUGCCAGUGAAGAAAUGAACAAAGAAAGUCUGGGCCAGGCAGGCAUCAAAGGAAAUAGUCUCGCGCUCAACCAGAAAGUCUGUAAUCAUUCUAAGGGUA [A24G A69G A92G U103C U132C] | 0.6 |
| GUUAACGGUCAUAGGCCAUGGAAGCUAGGAUCACCACUUCGCUGCCAGUGAAGAAAUGAACAAAGAAAAUCAGGGCCAGGCAGGCAUCAAAAGAAAUAGUCUUGCGCUCAACCAGAAAGUCUGUAAUCAUUUUAAGGGUA [A24G G31U U37C U72A] | 0.37 |
| GUUAACGGUCAUAGGCCAUGGAAGCUAGGAGCACCAUUUCGCUGCCAGUGAAGAAAUGAACAAAGAAAAUCUGGGCCAGGCAGGCGUCAAAAGAAAUGGUCUUGCGCUCAACCAGAAAGCCUGCAACCAUUUUAAGGGUA [A24G A86G A98G U120C U124C U127C] | 0.01 |
| GUUAACGGUCAUAGGCCAUGGAAGCUAGGAGCACCAUUUCGCUGCCAGUGAAGAAAUGAACAAAGAAAAUCUGGGCCAGGCAGGCAUCAAAAGGAAUAGUCUUGCGCUCAACCAGGAAGUCUGUAAUCAUUUUAAGGGUA [A24G A94G A116G] | 1.69 |
| GUUAACGGUCAUAGGCCAUGGAAGCUAGGAGCACCAUUUCGCUGCCAGUGAAGAAAUGAACAAAGAAAAUCUGGGCCAGGCAGGCAUCAAGAGGAAUAGUCUUGCGCUCAACCUGAAAGUCUGUACUCAUUUUAGGGGUA [A24G A91G A94G A114U A126C A135G] | 0.01 |
| GUUAACGGUCAUAGGCCAUGGAAGCUAGGAGCACCAUUUCGCUGCCAGUGAAGAAAUGAACAAAGAAAAUCUGGGCCAGGCAGGCAUCAAAAGAAAUAGUCUUGCGCUCAACCAGAAGGACUGUAAUCAUGUUAAGGGUA [A24G A118G U120A U131G] | 0.35 |
| GUUAACGGUCAUAGGCCAUGGAAGCUAGGAGCAUCGUCUCGCUGCCAGUGAAGAAAUGAACAAAGAAAAUCUGGGCCAGGCAGGCAUCAAAGGAAACAGUCUUGCGCUCAACCAGAAAGUCUGUAAUCAUUUUAAGGGUA [A24G C34U A36G U38C A92G U97C] | 0.74 |
| GUUAACGGUCAUAGGCCAUGGAAGCUAGGAGCAUCAUUUCGCUGCCUGUGAAGAAAUGAACAAAGAAAAUCUGGGCCAGGCAGGCAUCAAAAGAAAUAGUCUUGCGCUCAACCAGAAAGUCUGUAAUCAUUCUAAGGGUA [A24G C34U A47U U132C] | 0.75 |
